# Experimental data taken from the supplement of paper PMC8728848.
# Some of the results follow.
# Tests used:
# Assay in all cases: glycan array binding signal (z-score within array); higher = stronger binding
# Conditions in all cases: glycan notation: IUPAC condensed, linker removed
# [1] = molecular target: Neu5Ac(a2-8)Neu5Ac
# Method in brief: (§1)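 Negative Z-scores can be read as non-binding. The Z-score is calculated within each array and then averaged across arrays of one protein sequence at different concentrations or buffers and across linkers. Arrays, 3228 in all, were curated from the Consortium for Functional Glycomics database and kept only where the protein sequence was available.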
# [2] = molecular target: Neu5Ac(a2-8)Neu5Ac(a2-3)Gal(b1-3)GalNAc(b1-4)[Neu5Ac(a2-3)]Gal(b1-4)Glc
# Method in brief: as §1
# [3] = molecular target: Neu5Ac(a2-8)Neu5Ac(a2-3)Gal(b1-3)GalNAc(b1-4)[Neu5Ac(a2-8)Neu5Ac(a2-3)]Gal(b1-4)Glc
# Method in brief: as §1
# [4] = molecular target: Neu5Ac(a2-8)Neu5Ac(a2-3)Gal(b1-4)Glc
# Method in brief: as §1
# [5] = molecular target: Neu5Ac(a2-8)Neu5Ac(a2-3)Gal(b1-4)GlcNAc
# Method in brief: as §1
# [6] = molecular target: Neu5Ac(a2-8)Neu5Ac(a2-3)[Gal(b1-3)GalNAc(b1-4)]Gal(b1-4)Glc
# Method in brief: as §1
# [7] = molecular target: Neu5Ac(a2-8)Neu5Ac(a2-3)[GalNAc(b1-4)]Gal(b1-4)Glc
# Method in brief: as §1
# [8] = molecular target: Neu5Ac(a2-8)Neu5Ac(a2-8)Neu5Ac
# Method in brief: as §1
# [9] = molecular target: Neu5Ac(a2-8)Neu5Ac(a2-8)Neu5Ac(a2-3)Gal(b1-4)Glc
# Method in brief: as §1
# [10] = molecular target: Neu5Ac(a2-8)Neu5Ac(a2-8)Neu5Ac(a2-3)[Gal(b1-3)GalNAc(b1-4)]Gal(b1-4)Glc
# Method in brief: as §1
# [11] = molecular target: Neu5Ac(a2-8)Neu5Ac(a2-8)Neu5Ac(a2-3)[GalNAc(b1-4)]Gal(b1-4)Glc
# Method in brief: as §1
# [12] = molecular target: Neu5Ac(a2-8)Neu5Ac(a2-8)Neu5Ac(a2-8)Neu5Ac(a2-3)[GalNAc(b1-4)]Gal(b1-4)Glc
# Method in brief: as §1
# [13] = molecular target: Neu5Ac(a2-8)Neu5Gc(a2-3)Gal(b1-4)GlcNAc
# Method in brief: as §1
# [14] = molecular target: Neu5Ac(b2-6)Gal(b1-4)GlcNAc
# Method in brief: as §1
# [15] = molecular target: Neu5Ac(b2-6)GalNAc
# Method in brief: as §1
# [16] = molecular target: Neu5Ac9Ac(a2-3)Gal(b1-4)GlcNAc
# Method in brief: as §1
# [17] = molecular target: Neu5Ac9Ac(a2-6)Gal(b1-4)GlcNAc
# Method in brief: as §1
# [18] = molecular target: Neu5Gc(a2-3)Gal(b1-3)GlcNAc
# Method in brief: as §1
# [19] = molecular target: Neu5Gc(a2-3)Gal(b1-3)[Fuc(a1-4)]GlcNAc
# Method in brief: as §1
# [20] = molecular target: Neu5Gc(a2-3)Gal(b1-4)Glc
# Method in brief: as §1
# [21] = molecular target: Neu5Gc(a2-3)Gal(b1-4)GlcNAc
# Method in brief: as §1
# [22] = molecular target: Neu5Gc(a2-3)Gal(b1-4)GlcNAc(b1-3)Gal(b1-4)GlcNAc(b1-2)Man(a1-3)[Neu5Gc(a2-3)Gal(b1-4)GlcNAc(b1-3)Gal(b1-4)GlcNAc(b1-2)Man(a1-6)]Man(b1-4)GlcNAc(b1-4)GlcNAc
# Method in brief: as §1
# [23] = molecular target: Neu5Gc(a2-3)Gal(b1-4)[Fuc(a1-3)]GlcNAc
# Method in brief: as §1
# [24] = molecular target: Neu5Gc(a2-6)Gal(b1-4)GlcNAc
# Method in brief: as §1
# [25] = molecular target: Neu5Gc(a2-6)GalNAc
# Method in brief: as §1
# [26] = molecular target: Neu5Gc(a2-8)Neu5Ac(a2-3)Gal(b1-4)GlcNAc
# Method in brief: as §1
# [27] = molecular target: Neu5Gc(a2-8)Neu5Gc(a2-3)Gal(b1-4)GlcNAc
# Method in brief: as §1
# [28] = molecular target: Neu5Gc(a2-8)Neu5Gc(a2-3)Gal(b1-4)GlcNAc(b1-3)Gal(b1-4)GlcNAc
# Method in brief: as §1
# [29] = molecular target: Neu5Gc(a2-8)Neu5Gc(a2-6)Gal(b1-4)GlcNAc
# Method in brief: as §1
# [30] = molecular target: Neu5Gc(b2-6)Gal(b1-4)GlcNAc
# Method in brief: as §1
binder,measurement,setting,value
Blon2468mut (Bifidobacterium longum) (protein) MTFIKQMMPRYVASMTAGIVAAAMAATCAFAPVANADAVSPTQETIQSTGRHFMVYYRAWRDVTMKGVNTDLPDDNWISMYDIPYGVDVVNIFSYVPSGQEEQAQPFYDKLKSDYAPYLHSRGIKLVRGIDYTGVAVNGFRTFMKEQNKTESEATEADYDAYAKQVIDKYMISVGLDGLDIDMQAHPNDADVKISDNVIRALSKHIGPKSAKPDTTMFLYDTNGSYLNPFKNVAECFDYVAYQQYGSSSDRTARAAADYQPYIGNEFVPGLTFPEEGDMNNRWYDATEPYEESHFYQVASYVREHNLGGMFVYALDRDGRNYDEDLRRIVPSNLLWTKTAIAESEGMALDTAKTAANHYLDRMSLRQVIDDNAASADKARDMVGKAANLYETNKAVLGGDYGEGFSNTYDPTLEAGLLGIDISVLQQQIDKSSEIIGADTAESDAKTALRMARDAAIDGLTGKIYTADQVSAWSQALKAALDATVPVPTPDSTDQNGNRDKVTNHKVQGQPKQLSATGISTDIIVAVGVTLAIAGVALSLSRKLS,glycan array binding signal (z-score),[1],-0.066
same,glycan array binding signal (z-score),[2],-0.065
same,glycan array binding signal (z-score),[3],-0.052
same,glycan array binding signal (z-score),[4],-0.061
same,glycan array binding signal (z-score),[5],-0.079
same,glycan array binding signal (z-score),[6],-0.074
same,glycan array binding signal (z-score),[7],-0.07
same,glycan array binding signal (z-score),[8],-0.073
same,glycan array binding signal (z-score),[9],-0.088
same,glycan array binding signal (z-score),[10],-0.075
same,glycan array binding signal (z-score),[11],-0.067
same,glycan array binding signal (z-score),[12],-0.085
same,glycan array binding signal (z-score),[13],-0.08
same,glycan array binding signal (z-score),[14],-0.06
same,glycan array binding signal (z-score),[15],-0.049
same,glycan array binding signal (z-score),[16],-0.099
same,glycan array binding signal (z-score),[17],-0.076
same,glycan array binding signal (z-score),[18],-0.059
same,glycan array binding signal (z-score),[19],-0.057
same,glycan array binding signal (z-score),[20],-0.056
same,glycan array binding signal (z-score),[21],-0.093
same,glycan array binding signal (z-score),[22],-0.066
same,glycan array binding signal (z-score),[23],-0.082
same,glycan array binding signal (z-score),[24],-0.061
same,glycan array binding signal (z-score),[25],-0.055
same,glycan array binding signal (z-score),[26],-0.06
same,glycan array binding signal (z-score),[27],-0.059
same,glycan array binding signal (z-score),[28],-0.053
same,glycan array binding signal (z-score),[29],-0.08
same,glycan array binding signal (z-score),[30],-0.052
